Test results published in the RNAGym collection of RNA variant scans (doi:10.7554/elife.90254).
Read counts are not given, so values of variants with three or more changes are uncertain.

B1: LINE1-mini (parent)
chain: GGCAGAGCUCAACACAGCGUGGCAAAGUGGCUGUGGCUAGACUGCC

Variants of: B1
Experiment: self-cleavage, relative activity (ratio to wild type); higher = more cleavage; in vitro, sequencing; the parent is a self-cleaving ribozyme

Variant | self-cleavage
G19A G22U G27U | 0.45
G19A U28A G30A C45G | 0.07
G19C G35U A41C | 0.01
G19U U32G G40A A41C | 0.05
G19U A41U U43A C45U | 0.05
G19C G30U U32A C37G | 0.06
G19C G27A G30C | 0.12
C18U U28G U32C U34A G36A | 0.05
G19U G22U G30U U34C | 0.04
C18U U20A C42A | 0.07
C18U G29U U32G G44C | 0.03
C18G G19U A26U | 0.23
U20A C23G G29C G35A G36U | 0.04
C18U G22A C23U | 0.93
G19U G27A C37U | 0.03
G19C G21A U38A G44C | 0.03
C18U G21A G27A C31U | 0.12
G19A A26U C31U | 0.26
C18U U32G U34C U43G | 0.01
U20A A25U C31U C37A | 0.1
G19A G21C A25U G29C | 0.41

Variant | self-cleavage
G19U G27U U28C C37U C42A | 0.04
G19A G29U U34G C42G C46U | 0.02
G19A G29A C31G | 0.17
G19C C23U G29A C45U | 0.29
C18U G19C G33A A39U C42G | 0.04
G19U G29C G36A C42U | 0.08
G19U G30C U32G | 0.17
G19U C23G G27C C45U | 0.84
G19U G22U A39G G40U | 0.02
G19A G22A G29U U32G C42A | 0.03
U20A C31U C42U | 0.02
U20A G36C C37G | 0.01
U20A C23G U28A | 0.14
G19A G22U G36U | 0.04
U20A G29C G36U | 0.02
C18U G21U G44A | 0.14
C18U G21U G22C C37U | 0.05
G19U A26U G36A | 0.04
G19U U32G G44C | 0.04
C18G U28A U34A | 0.01
U20C G21C G40A C46U | 0.05

Variant | self-cleavage
G19U U20G G30A C31G A41U | 0.04
G19C C23G G27U C37A A39U | 0
C18U U28C A41G | 0.11
G19A U20C U34A | 0.28
C18U G35U G36U | 0.05
G19A G22U G35U | 0.1
C18U C23A A25G | 2.35
G19U G30A U34A G36U | 0.04
G19C A26C C42U | 0.38
G19A G21C A39C | 0.03
G19A G21U G22A C31A C37U C42U | 0.04
G19A G22U A26C C37U | 0.01
G19C G21C G29U | 0.3
G19U A26G C46G | 0.1
C18G G21C G22C A24C G27A G30U C31A G40A U43A | 0.02
C18G G21A G30U | 0.68
G19U A26C G29A | 0.34
C18U U32G U34C C37U G44A | 0.03
G19C U28C G30C | 0.19
G19U G22A G27C | 0.6
G19A G29U G33C | 0.12

Variant | self-cleavage
G19U U28G G29U C37A | 0.05
G19C A25U G29C | 0.44
U20C A26U G29A U32A U38C | 0.08
U20A C42U G44U C46U | 0
G19C A24C A25C | 0.13
U20C G21A C23A | 0.06
G19A C23A C31U | 0.18
U20A G33C G36A G44A | 0.03
G19A G21U G30U C31A | 0.27
C18G G22C C31U G36U | 0
G19U A24G U28A U38A | 0.22
G19A A39U C46G | 1.9
C18G G40A G44U | 0
G19C G29U G33A G44C | 0.07
C18U G19A A24U C31A | 0.03
U20A C42U C45G | 0.03
U20A A25C A26U U28C U32A C37G C42G | 0.08
C18G G40C C45U | 0.06
U20A G33A C37U | 0
G19U G29C G35U C37A | 0.09
U20A G35C U38C | 0.01
